Measured values taken from the antibiotic and cytotoxicity screens of Wong et al. (2023).
The other results are listed elsewhere or left out.

test system: HSkMC (human skeletal muscle cells); assay: cytotoxicity call (relative viability < 0.9); conditions: 10 µM

Row | SMILES | cytotoxicity call
1 | COc1ccc2c(c1)n(CCN)c(=O)n2C(=O)[C@@H]1C[C@H](C)CC[C@H]1C(C)C | active
2 | COc1cccc(S(=O)(=O)N2C[C@@H](O)COC[C@H]3O[C@@H](CC(=O)N4CCOCC4)CC[C@@H]32)c1 | inactive
3 | C[C@H](CO)N1C[C@H](C)[C@H](CN(C)S(C)(=O)=O)Oc2cc(C#Cc3ccc(F)cc3)ccc2S1(=O)=O | inactive
4 | COc1ccc(S(=O)(=O)N(C)C[C@H]2OCCCC[C@@H](C)Oc3ccc(NS(=O)(=O)c4cn(C)cn4)cc3C(=O)N([C@@H](C)CO)C[C@H]2C)cc1 | inactive
5 | C[C@H]1CN([C@@H](C)CO)C(=O)c2cc(NC(=O)C3CC3)ccc2O[C@H]1CN(C)S(=O)(=O)c1ccccc1 | inactive
6 | C[C@@H]1CCCCO[C@H](CN(C)Cc2ccc(C(=O)Nc3ccccc3N)cc2)[C@@H](C)CN([C@H](C)CO)C(=O)c2cc(NS(=O)(=O)c3cccs3)ccc2O1 | inactive
7 | Cc1ccc(S(=O)(=O)Nc2ccc3c(c2)CC(=O)N([C@@H](C)CO)C[C@H](C)[C@@H](CN(C)C(=O)NC(C)C)O3)cc1 | inactive
8 | C[C@H]1CN([C@@H](C)CO)C(=O)Cc2cc(NC(=O)CCN3CCOCC3)ccc2O[C@H]1CN(C)S(=O)(=O)c1cccs1 | inactive
9 | COc1ccc(CN(C)C[C@@H]2OCCCC[C@@H](C)Oc3ccc(NC(=O)Nc4ccc(OC)cc4)cc3C(=O)N([C@H](C)CO)C[C@H]2C)cc1 | inactive
10 | C[C@H]1CN([C@@H](C)CO)S(=O)(=O)c2ccc(Br)cc2O[C@H]1CN(C)CC1CCOCC1 | inactive
